PubChem BioAssay AID1963576 (National Center for Advancing Translational Sciences (NCATS), 2024)
Screen size: about 46,000 compounds; about 60 (0.1%) were called active. Not shown: some 3% with an inconclusive outcome. The call rests on the fitted dose curve; in most records, active means well fitted inhibition curve with a large enough effect; inconclusive means small, poorly fitted or top-dose-only effect; inactive means no such curve, though single readings can be large or run the other way. The list shows a part of the results.

experiment: Primary qHTS assay for Inhibitors of ovarian cancer metastasis using an organotypic tumor microenvironment (TME) model.; further: nearly all actives have a fitted effect of over 65% in size; details: SKOV3ip1-GFP adhesion/invasion on 3D omental model, fluorescence; series mostly up to 45.8 µM; activity change, negative = inhibition: at the top concentration
From the text: PI: Ernst Lengyel MD., Ph.D. Department of Obstetrics and Gynecology, Section of Gynecologic Oncology University of Chicago Medicine, Chicago, Illinois. The tumor microenvironment (TME) is a key determinant of metastatic efficiency. We performed a quantitative high-throughput screen (qHTS) of diverse medicinal chemistry tractable scaffolds (44,420 compounds) and pharmacologically active small molecules (386 compounds) using a layered organotypic, robust assay representing the ovarian cancer metastatic TME. This 3D model contains primary human mesothelial cells, fibroblasts, and extracellular matrix, to which fluorescently labeled ovarian cancer cells are added. Initially, 100 compounds inhibiting ovarian cancer adhesion/invasion to the 3D model in a dose-dependent manner were identified. Of those, eight compounds were confirmed active in five high-grade serous ovarian cancer cell lines and were further validated in secondary in vitro and in vivo biological assays. […] Specifically, NCGC00117362 and PP-121 inhibited ovarian cancer adhesion, invasion, and proliferation, whereas milciclib inhibited ovarian cancer invasion and proliferation. […] To evaluate the clinical potential of NCGC00117362, structure - activity relationship studies were performed. […] The three compounds identified have promise as therapeutics for prevention and treatment of ovarian cancer metastasis.
PROTOCOL TABLE (as described by Inglese J, Shamu CE and Guy RK. 2007) SEQUENCE No. (e.g., 1, 2, 3, etc.); […] (e.g., Cells, Incubation, Reagent, etc.); VALUE; DESCRIPTION. 1; Cells; 4 uL; primary human omental fibroblast, black, clear bottom, low base, 1536-well Aurora assay plate. 2; Incubation; 48 hr; 37C. 3; Cells; 3 uL; 1,200 SKOV3ip1-GFP cells. 4; Compounds; 23nL; acoustic dispenser. 5; Incubation; 2 hr; room temperature. 6; Incubation; 16 hr; 37C. 7; Wash; 5 uL; 1x PBS. 8; Fixing; 5 uL; 4% paraformaldehyde (PFA). 9; Incubation; 15 min; room temperature 10; Wash, 5 uL; 1x PBS. 11; Detection; Fluorescence, excitation filter 488 nm, emission filter 509 nm. NOTES (numbers refer to Sequence numbers above) 1. For the 1,536-well format, 40 primary human omental fibroblasts and 400 mesothelial cells were seeded with 0.02 µg fibronectin and 0.02 µg collagen type I in 4 µL of growth media (2.3 mm2; Supplementary Fig. S1A). 2. Assay plates were incubated for 48 hours at 37 C. 3. After incubation, 1,200 SKOV3ip1-GFP were seeded in 3 µL of serum-free media (growth media minus FBS) on top of primary human omental cells. 4. Compounds or controls were added to each well immediately after the addition of the cancer cells. Compounds were screened in four doses (0.36-46 µmol/L), and the plates contained the positive control (Tomatine) in eight doses (0.035-75 µmol/L) and DMSO (equal volume controls) 5 - 6. The plates were incubated at room temperature for 2 hours and then at 37 degrees C for 16 hours. 7 - 10. Following incubation, the media were aspirated and each well washed with PBS (5 µL) and then fixed with 4% paraformaldehyde (PFA; 5 µL). After 15 minutes, the PFA solution was aspirated, PBS (5 µL) was added. 11. The number of GFP-labeled cells analyzed using a fluorescent cytometer TTP LabTech Acumen eX3 using 488 nm excitation filter and 509 nm emission filter. Data was normalized to the DMSO treated for negative and Tomatine treated wells for positive control. REFERENCES: Inglese J, Shamu CE and Guy RK, Reporting data from high throughput screening of small molecule libraries, Nature Chemical Biology, 2007, 3(8): 438-441. doi.org/10.1038/nchembio0807-438. Yasgar A, Shinn P, Jadhav A, Auld DS, Michael S, Zheng W, Austin CP, Inglese J and Simeonov A, Compound Management for Quantitative High-Throughput Screening. J. Assoc. Lab. Auto., 2008, 13: 79-89. doi: 10.1016/j.jala.2007.12.004.

outcome, inactive:
COc1ccc(Oc2nc3c(c(=O)n(C)c(=O)n3C)n2Cc2ccccc2Cl)cc1
O=C(Nc1ccc2nc(SCc3ccccc3)sc2c1)c1cccc(F)c1
Cc1cc(OCC(=O)Nc2cc(-c3nc4ccccc4[nH]3)ccc2C)ccc1Cl
COc1cc(Cl)c(C)cc1Nc1nc2ccccc2nc1NS(=O)(=O)c1ccccc1
COc1ccc(S(=O)(=O)n2nc(C)c(S(=O)(=O)N3CCCCCC3)c2C)cc1OC
CN(C)S(=O)(=O)c1ccc2c(c1)N(CC(=O)NCc1cccc(Br)c1)C(=O)CS2
Cc1ccccc1-c1nc(C(N)=O)c2c(n1)n(-c1ccc3c(c1)OCO3)c(=O)n2C
O=S(=O)(NCCc1csc2nc(-c3ccc(Cl)cc3)nn12)c1ccc(Oc2ccccc2)cc1
CCn1c(=N)c(C(=O)NC2CCCCC2)cc2c(=O)n3cccc(C)c3nc21
Cc1ccc(O)c(NC(=O)c2noc3c2CCCCC3)c1
CCc1ccc(NC(=O)c2ccc3oc(=O)n(Cc4ccccc4)c3c2)cc1
CCOc1ccc(OCC)c(NC(=O)C(NS(=O)(=O)c2ccc(Br)s2)c2ccccc2)c1 (configuration not stated)
CCOC(=O)CSc1nc2c(sc3ccccc32)c(=O)n1Cc1ccc(C)cc1
O=C(CCc1nnc2n(Cc3ccccc3Cl)c(=O)c3ccccc3n12)Nc1ccc(F)c(F)c1
CCCCNC(=O)Cn1c(=O)cc(C)c2c(C)nn(-c3ccc(CC)cc3)c21

Activity change, negative = inhibition, inactive:
COc1ccc(OCCSc2nc(C)c(Cc3ccccc3)c(=O)[nH]2)cc1 11.2%
COc1ccc(NC(=O)CCN2CCN(CCO)CC2)c(OC)c1 1.06%
CS(=O)(=O)Oc1ccc2c(NC(N)=O)c(C(=O)c3ccc(Cl)cc3Cl)oc2c1 1.19%
CCOc1cc(C(=O)Nc2nnc3n2CCS3)cc(OCC)c1OCC 19%
CCOc1ccc(C(=O)CSc2nnc3cc(C)c4ccccc4n23)cc1 -11.5%
Cc1ccccc1C(=O)Nc1nnc(SCc2cc(=O)n3ccccc3n2)s1 -1.33%
COc1ccc(-c2noc(N3CCN(c4cccc(Cl)c4)CC3)n2)cc1OC 1.56%
CC(C(=O)Nc1ccc(F)c(Cl)c1)N1Cc2ccccc2C1=O (configuration not stated) -5.19%
CCSc1oc(-c2ccc(F)cc2)nc1S(=O)(=O)c1ccc(C)cc1 -5.4%
CN1CCN(C(=O)c2ccc3c(c2)N(Cc2c(F)cccc2Cl)C(=O)c2ccccc2S3)CC1 -2.12%
Cc1ccc(N(CC(=O)NCC(C)c2ccccc2)S(=O)(=O)N(C)C)cc1 (configuration not stated) 0.498%
CC(C)(C)c1ccc(C(=O)NCC(c2cccs2)S(=O)(=O)c2ccc(F)cc2)cc1 (configuration not stated) 1.57%
CC(=O)c1cccc(S(=O)(=O)N2CCN(c3ccccc3F)CC2)c1 -1.91%
CCCCC(CC)CNC(=O)c1ccc2c(=O)n(CCOC)c(=O)[nH]c2c1 (configuration not stated) -1.42%
Cc1cccc(C(=O)Nc2ccc(-c3nc4cc(C(C)C)ccc4o3)cc2)c1 -22.3%
Cc1ccc(N2CCN(C(=O)NCc3noc4ccccc34)CC2C)cc1 (configuration not stated) -7.33%
COc1ccccc1N1CCN(C(=O)c2cnn(-c3ccc(C)c(C)c3)c2C2CCN(C(=O)OC(C)(C)C)CC2)CC1 -5.43%
CCOC(=O)c1ccc(NC(=O)C2CCN(C(=O)N3CC(C)Oc4ccc(C)cc43)CC2)cc1 (configuration not stated) -2.98%
COc1ccc(Cl)cc1S(=O)(=O)N1CCN(Cc2cccc(F)c2)CC1 -14.8%
CCCOc1ccc(C(=O)N(Cc2cccs2)c2ccc(C)cc2)cc1 18%
COc1ccc(-c2c3c(nc4sc(C(=O)Nc5ccc(F)cc5)c(N)c24)CC(C)(C)CC3=O)cc1 -0.65%
CCOC(=O)c1c(C)oc2ncnc(NCCCN3CCN(c4cc(C)ccc4C)CC3)c12 -9.9%
O=C(NCc1ccco1)C1CCN(C(=O)N2CCOc3ccc(Cl)cc32)CC1 -24.3%
Cc1cc2nc(-c3ccc(Cl)cc3)cc(C(F)(F)F)n2n1 -10.6%
Cc1ccc(C)c(Cn2c(=O)n(Cc3ccc(C(=O)NC4CCN(Cc5ccccc5)CC4)cc3)c(=O)c3ccccc32)c1 4.59%
O=c1cc2nc(-c3cccs3)nc(SCCOc3ccc(Cl)cc3)n2[nH]1 7.78%
O=C1CC(c2nnc(Cc3ccc(Cl)cc3)o2)CN1c1ccccc1 (configuration not stated) 0.692%
COc1ccccc1-c1nnc2n(CCc3ccccc3)c(=O)c3ccccc3n12 13.9%
Cc1cc2c(cc1S(=O)(=O)CCC(=O)NC1CCC(C)CC1)OCC(=O)N2 (configuration not stated) 23.1%
CC(=O)N1c2ccccc2CC1C(=O)N1CCN(c2cccc(Cl)c2)CC1 (configuration not stated) 7.57%
COc1cccc(-n2cc(C(=O)Oc3cccc(C(F)(F)F)c3)c3ccccc3c2=O)c1 -5.3%
CCN(c1ncnc2c1cnn2-c1cc(Cl)ccc1C)C1CCCCC1 5.1%
Nc1c(-c2nc(-c3cccs3)no2)nnn1-c1cccc(F)c1 -1.95%
CCOC(=O)c1cnc2c(C)cccc2c1NCCc1ccc(OC)c(OC)c1 -0.984%
Cc1ccc(C)c(CN2C(=O)c3ccccc3S(=O)(=O)c3ccc(C(=O)N4CCCC4)cc32)c1 -3.27%
COc1cccc(CNC(=O)CN2C(=O)CCCc3ccccc32)c1OC 0.545%
CNC(=O)C1CCN(Cc2cc3ccccc3n2Cc2ccccc2C)CC1 -3.26%
CC(=O)NCCNc1nc2c(-c3ccc(C)cc3)nnn2c2ccccc12 -20.9%
CCOCCCNC(=O)CCC(=O)NNc1nc2ccccc2c2nc(-c3ccccc3)nn12 -0.641%
Cc1oc(-c2ccccc2)nc1CSc1nnc(C)n2c1cc1sccc12 -6.67%
O=C(NCc1cccc(Br)c1)C1CCN(C(=O)c2sccc2-n2cccc2)CC1 11.5%
CCC1CN(C(=O)N2CCC(C(=O)NCCc3ccc(C)cc3)CC2)c2ccccc2O1 (configuration not stated) -7.89%
Cc1ccc(-c2cn3c(n2)sc2cc(C(=O)NCc4cccs4)ccc23)cc1 -4.31%
COc1ccc(NC(=O)C2CCCN(S(=O)(=O)c3ccc4[nH]c(=O)ccc4c3)C2)cc1Cl (configuration not stated) 4.6%
COC(=O)c1cc2sccc2n1Cc1c(C)cc(C)cc1C -2.39%
O=C(c1cccc(Cl)c1)N(Cc1cccc(F)c1)C1CCS(=O)(=O)C1 (configuration not stated) 2.83%
NC(=O)c1c(NC(=O)CS(=O)(=O)c2ccc(Cl)cc2)sc2c1CCCC2 0.876%
